# From PubChem BioAssay AID504333 (National Center for Advancing Translational Sciences (NCATS), 2011)
# Hit rate of the full screen: of about 360,000 compounds, about 16,000 (4.4%) were called active. Inconclusive means that the source gave no clear call. Such entries were picked first, then a sample of the others. Calls follow the shape of the dose curve; as a rule, active = well fitted inhibition curve with a large enough effect; inconclusive = small, poorly fitted or top-dose-only effect; inactive = no such curve, though single readings can be large or run the other way. A potency beside an inconclusive call is a rough fit, not a confirmed value.
# Target: Bromodomain adjacent to zinc finger domain protein 2B (Homo sapiens) (UniProt Q9UIF8)
# Assay: qHTS Assay for Inhibitors of BAZ2B; also: nearly all actives have a fitted effect of over 60% in size
# Conditions: AlphaScreen BAZ2B-H3K14Ac peptide displacement; activity change, negative = inhibition: at 114 µM (top of the series)
# Procedure, shortened: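 In this displacement format the biotinylated H3(5-23) peptide acetylated at Lys14 serves as ligand at 50 nM, with BAZ2B at 50 nM in PBS pH 7.4 containing 0.01% Tween-20. Donor and acceptor beads are 10 ug/mL final.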
# % is scaled to controls: 0 for no effect and ±100 for the full control effect; potency is read from the fitted curve at half-maximal effect; tags tell the direction and shape of the fitted curve.
# Sequence of UniProt Q9UIF8 (Q9UIF8 whole entry, looked up, the tested form may be a part): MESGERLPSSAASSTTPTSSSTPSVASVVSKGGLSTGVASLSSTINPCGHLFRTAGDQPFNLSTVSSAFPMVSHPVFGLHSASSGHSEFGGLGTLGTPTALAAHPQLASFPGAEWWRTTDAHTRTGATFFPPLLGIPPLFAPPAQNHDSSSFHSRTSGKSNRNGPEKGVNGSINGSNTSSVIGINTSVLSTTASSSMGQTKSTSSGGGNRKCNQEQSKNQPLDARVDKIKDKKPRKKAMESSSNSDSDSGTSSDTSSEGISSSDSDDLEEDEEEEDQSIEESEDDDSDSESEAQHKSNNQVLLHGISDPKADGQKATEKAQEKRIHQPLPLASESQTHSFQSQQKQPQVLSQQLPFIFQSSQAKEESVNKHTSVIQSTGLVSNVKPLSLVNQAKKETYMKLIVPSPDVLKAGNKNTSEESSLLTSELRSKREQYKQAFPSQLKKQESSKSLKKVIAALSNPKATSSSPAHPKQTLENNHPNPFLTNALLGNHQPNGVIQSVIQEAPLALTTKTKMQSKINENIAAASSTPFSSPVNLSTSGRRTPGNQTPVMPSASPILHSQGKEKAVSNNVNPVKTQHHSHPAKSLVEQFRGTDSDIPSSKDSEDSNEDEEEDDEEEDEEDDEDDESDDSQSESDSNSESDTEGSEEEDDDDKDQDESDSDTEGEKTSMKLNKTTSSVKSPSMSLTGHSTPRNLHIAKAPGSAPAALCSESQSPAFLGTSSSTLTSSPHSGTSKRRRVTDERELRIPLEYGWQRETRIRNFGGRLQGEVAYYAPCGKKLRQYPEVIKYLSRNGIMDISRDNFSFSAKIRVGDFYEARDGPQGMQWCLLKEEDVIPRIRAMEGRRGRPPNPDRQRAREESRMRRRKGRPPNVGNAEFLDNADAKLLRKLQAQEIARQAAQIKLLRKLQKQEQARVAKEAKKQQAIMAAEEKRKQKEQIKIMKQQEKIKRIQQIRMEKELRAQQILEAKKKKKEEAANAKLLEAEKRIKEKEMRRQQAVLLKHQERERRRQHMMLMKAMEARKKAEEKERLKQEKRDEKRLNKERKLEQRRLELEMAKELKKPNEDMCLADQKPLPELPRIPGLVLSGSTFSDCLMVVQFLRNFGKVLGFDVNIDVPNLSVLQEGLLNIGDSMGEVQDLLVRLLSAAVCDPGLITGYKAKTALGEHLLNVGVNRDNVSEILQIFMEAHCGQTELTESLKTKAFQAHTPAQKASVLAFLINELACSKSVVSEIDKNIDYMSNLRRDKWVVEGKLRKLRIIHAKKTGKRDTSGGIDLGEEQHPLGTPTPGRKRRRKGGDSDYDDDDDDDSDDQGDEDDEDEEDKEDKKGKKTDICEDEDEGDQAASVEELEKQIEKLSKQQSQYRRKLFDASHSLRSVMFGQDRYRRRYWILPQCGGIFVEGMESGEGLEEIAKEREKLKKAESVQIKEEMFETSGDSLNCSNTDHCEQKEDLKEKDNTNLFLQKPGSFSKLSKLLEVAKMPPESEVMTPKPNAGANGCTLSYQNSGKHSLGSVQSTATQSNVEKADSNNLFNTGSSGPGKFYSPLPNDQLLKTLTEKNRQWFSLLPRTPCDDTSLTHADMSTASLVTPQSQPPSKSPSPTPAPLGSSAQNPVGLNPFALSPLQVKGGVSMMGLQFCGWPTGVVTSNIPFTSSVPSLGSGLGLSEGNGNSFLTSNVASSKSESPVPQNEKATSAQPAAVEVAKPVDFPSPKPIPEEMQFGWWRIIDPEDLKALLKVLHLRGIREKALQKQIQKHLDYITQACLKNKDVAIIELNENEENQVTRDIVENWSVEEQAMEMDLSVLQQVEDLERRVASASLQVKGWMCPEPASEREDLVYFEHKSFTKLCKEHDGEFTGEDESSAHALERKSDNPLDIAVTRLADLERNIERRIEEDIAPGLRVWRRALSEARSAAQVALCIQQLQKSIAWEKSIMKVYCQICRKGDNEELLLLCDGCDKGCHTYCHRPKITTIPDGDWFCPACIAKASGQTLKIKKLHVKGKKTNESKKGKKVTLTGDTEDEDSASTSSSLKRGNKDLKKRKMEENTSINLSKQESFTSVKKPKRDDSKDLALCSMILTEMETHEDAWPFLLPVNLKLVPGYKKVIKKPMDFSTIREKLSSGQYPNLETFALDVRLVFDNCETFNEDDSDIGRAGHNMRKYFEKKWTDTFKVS
SMILES,Potency,"activity change, negative = inhibition"
CC(=O)Nc1ccc(CN2CCc3c([nH]c4ccccc34)C2c2ccccn2)cc1 (centres undefined),"inconclusive: 70.8 µM [inhibitor, partial curve]",
O=C(Cn1nc(Cc2ccncc2)c2ccccc2c1=O)Nc1cccnc1Cl,,inactive: 4.4%
Cc1cccc(NC(=S)NC2CC3CCCC(C2)N3Cc2ccccc2)c1C (centres undefined),"inconclusive: 70.8 µM [inhibitor, single point]",
O=C1C(=O)N(CCCn2ccnc2)C(c2cccnc2)/C1=C(/O)c1ccc(F)cc1 (centres undefined),"inconclusive: 89.1 µM [inhibitor, single point]",
CC(=O)Nc1nnc(-c2ccccn2)o1,"inconclusive: 89.1 µM [inhibitor, single point]",
COc1cc2c(cc1OC)C(COc1ccc3c(C)cc(=O)oc3c1)N(C(=O)c1ccccc1F)CC2 (centres undefined),,inactive: -4.11%
CCOC(=O)/C(=C\C=C1/Sc2cc(OCC)c(OCC)cc2N1CC)C(C)=O,"inconclusive: 89.1 µM [inhibitor, single point]",
Cc1ccc(NC(=O)COc2coc(CN3CCc4ccccc43)cc2=O)c(C)c1,active: 50.1 µM,
CC1CCN(CCCCOc2ccc(C(C)(C)C)cc2)CC1,"inconclusive: 79.4 µM [inhibitor, single point]",
CC(C)c1ccc(NC2=NCC(=O)N2Cc2cccs2)cc1,"inconclusive: 79.4 µM [inhibitor, single point]",
CC1CCN(c2ccccc2NC(=S)NC(=O)C(C)(C)C)CC1,"inconclusive: 44.7 µM [inhibitor, partial curve]",
CCOC(=O)c1cc(C#N)c(N2CCN(c3ccc(OC)cc3)CC2)[nH]c1=O,"inconclusive: 50.1 µM [inhibitor, partial curve]",
Cc1ccccc1Cn1nc(C)c(NC(=O)c2nc3n(n2)C(C(F)F)CC(C)N3)c1C (centres undefined),"inconclusive: 89.1 µM [inhibitor, single point]",
O=C(O)c1ccccc1-c1nc(-c2ccccc2)c(-c2ccccc2)[nH]1,"inconclusive: 79.4 µM [inhibitor, single point]",
NS(=O)(=O)c1ccc(CCNC(=O)c2ccccc2F)cc1,,inactive: 3.69%
COc1ccc(-c2cc(C)no2)cc1S(=O)(=O)N1CCN(c2ccccc2F)CC1,inactive,
CC(=O)N1c2ccccc2CC1C(=O)NCc1cccc(Cl)c1 (centres undefined),,inactive: -0.27%
C/C(=N\O)C1(C)N(O)C(C)(C)C(c2ccco2)=[N+]1[O-] (centres undefined),,inactive: -2.03%
CCOc1cc(CNc2ccc(N3CCN(C(C)=O)CC3)cc2)cc(Br)c1OC,active: 31.6 µM,
C=C(C)C(=O)Nc1cccc(C2=NOC3(C2)C[C@@H](C(N)=O)N(C(=O)C2(C)CC2)C3)c1 (some centres undefined),active: 1.58 µM,
COc1ccc(Br)cc1CN1CCCCCCC1,active: 50.1 µM,
CN(C)c1cccc(NC2=CC(=[N+]3CCOCC3)CC(C)(C)C2)c1,"inconclusive: 5.62 µM [inhibitor, single point]",

SMILES,Potency,"activity change, negative = inhibition"
CCN(CC)c1ccc(/C=C2\C(=O)c3ccc(C(=O)O)cc3C2=O)cc1,active: 14.1 µM,
CCOC(=O)C1=C(CNCCOc2ccc(OC)cc2)NC(=O)NC1c1ccc2c(c1)OCO2 (centres undefined),"inconclusive: 89.1 µM [inhibitor, single point]",
Cc1nn(-c2ccccc2)c2sc(-c3n[nH]c(=S)o3)cc12,"inconclusive: 89.1 µM [inhibitor, single point]",
COc1ccc(NC(=S)N2CCN(Cc3cccc(F)c3)CC2)c(OC)c1,"inconclusive: 79.4 µM [inhibitor, single point]",
O=S(=O)(c1ccc(Cl)cc1)N1CCC(N2CCCCCC2)CC1,active: 79.4 µM,
COc1cc(/C=C(/C#N)c2nc(-c3cc4ccccc4oc3=O)cs2)cc([N+](=O)[O-])c1O,"inconclusive: 2.51 µM [inhibitor, full curve, poor fit]",
O=C(O)C1C2C=CC(C2)C1C(=O)NCc1ccccn1 (centres undefined),"inconclusive: 100 µM [inhibitor, single point]",
Cc1ccc(CCc2nnc(SCC(=O)Nc3ccccc3Cl)n2-c2ccccc2)o1,"inconclusive: 50.1 µM [inhibitor, partial curve]",
COc1ccccc1N(C(=O)CNS(=O)(=O)c1ccccc1)C(C(=O)NCc1ccco1)C(C)C (centres undefined),"inconclusive: 89.1 µM [inhibitor, single point]",
COc1ccc(N2CCN(C(=O)c3ccc(NS(=O)(=O)c4cccc(F)c4)cc3)CC2)cc1,"inconclusive: 79.4 µM [inhibitor, single point]",
Oc1ccc(N=Cc2ccc(O)c(O)c2)cc1,active: 44.7 µM,
Cc1oc2ncn(C)c(=O)c2c1C(=O)N1CCN(c2ccccc2)CC1,,inactive: -1.37%
O=S(=O)(c1cccc(Cl)c1)N1CN(CC2CCCO2)c2nc3ccccc3nc21 (centres undefined),"inconclusive: 31.6 µM [inhibitor, full curve]",
CC1CCCN(CCCNS(=O)(=O)c2cc(Br)cc3c2N(C(=O)C2CC2)CC3)C1 (centres undefined),,inactive: 3.51%
CCc1cc2cc(C)ccc2nc1SCC(=O)N1CCN(C(=O)c2ccco2)CC1,"inconclusive: 70.8 µM [inhibitor, partial curve]",
CCN(C(=O)COC(=O)c1[nH]c(C)c(C(C)=O)c1C)c1c(N)n(Cc2ccccc2)c(=O)[nH]c1=O,"inconclusive: 89.1 µM [inhibitor, single point]",
COc1cccc(CNC(=O)c2cc3c(s2)-c2c(C)cccc2OC3)c1,,inactive: 26.9%
Cc1nc2ccccc2c2c(N)c3ccccc3n12,"inconclusive: 50.1 µM [inhibitor, partial curve]",
O=C(O)c1ccc(NNC(=S)Nc2cc(C(F)(F)F)ccc2Cl)cc1,"inconclusive: 70.8 µM [inhibitor, single point]",
CC(C)Nc1oc(-c2cccc3ccccc23)nc1C#N,,inactive: -33.6%
COc1cc2ncc(C(=O)c3ccccc3)c(N3CCN(Cc4ccccc4)CC3)c2cc1OC,"inconclusive: 35.5 µM [inhibitor, partial curve]",
COc1ccc(-n2nc3c(N4CCCC(C(=O)NCc5cccc(F)c5)C4)nnc(C)c3c2C)cc1 (centres undefined),"inconclusive: 89.1 µM [inhibitor, single point]",
